# Results from PubChem BioAssay AID1347073 (National Center for Advancing Translational Sciences (NCATS), 2019).
# Out of some 45,000 compounds screened, about 200 (0.44%) were called active. About 7% were inconclusive and are not listed. Calls come from the whole dose curve; as a rule, active = well fitted activation curve with a large enough effect; inconclusive = small, poorly fitted or top-dose-only effect; inactive = no such curve, though single readings can be large or run the other way. The list shows a part of the results.
# Assay: qHTS of TDP-43 Inhibitors: NCGC Sytravon Library Screen; note: nearly all actives have a fitted effect of over 55% in size; for growth rescue (activation): 0% is about no effect
# Details: yeast TDP-43 toxicity rescue, BacTiter-Glo growth, 24 h; series mostly up to 46.1 µM; growth rescue (activation): at the top concentration
# Procedure, shortened: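 TDP-43-expressing yeast, pregrown in raffinose, seeded at OD600 0.02 in galactose medium with compound for 24 hr at 30 deg C. Growth read by BacTiter-Glo luminescence, so rescue of toxicity appears as activation.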
# Potency is the fitted concentration of half-maximal effect.
Structure (SMILES),growth rescue (activation),Potency
CCN(CC)CCNC(=O)Cn1cnc2sc(C)c(S(=O)(=O)N3CCN(c4ccccc4OC)CC3)c2c1=O,inactive: -2.27%,–
COc1ccc(CCNC(=O)COC(=O)Cc2ccccc2F)cc1,inactive: 8.3%,–
CCCN(CC(=O)Nc1ccccc1Br)CC(=O)Nc1ccc(F)c(F)c1F,–,active: 11.2 µM
N#C/C(=C(/O)c1ccc2c(c1)OCO2)c1nc2cc(C(F)(F)F)ccc2s1,inactive: -5.55%,–
Cc1c(C)c2c(OCC(=O)NCC(=O)NCC(=O)O)cc3c(c2oc1=O)CCC(C)(C)O3,inactive: -1.59%,–
O=C(Nc1ccc(Oc2ccccc2)nc1)C1CCN(Cc2cccc(F)c2)CC1,inactive: -18%,–
COCCN(C(=O)CCC(=O)Nc1ccccn1)C(C(=O)NCCC(C)C)c1ccc(F)cc1 (stereo not given),inactive: 0.574%,–
CCOC(=O)Cn1c(=O)n(Cc2ccc(OC)cc2)c(=O)c2cccnc21,inactive: 20%,–
CCNS(=O)(=O)c1ccc(NC(=O)c2ccc(Cn3cc([N+](=O)[O-])cn3)o2)cc1,inactive: 12.3%,–
Cc1cccc(N(CC(=O)Nc2ccc(CC#N)cc2)S(C)(=O)=O)c1,inactive: 27.4%,–
c1ccc(CSc2nc3ccccc3[nH]2)cc1,inactive: 14.8%,–
COc1cccc(C2C(C(=O)OC(C)C)=C(C)N=c3s/c(=C\c4ccc(C(=O)O)cc4)c(=O)n32)c1 (stereo not given),inactive: -19%,–
C/C(N)=C(/C#N)C(=O)CSc1nncn1-c1ccccc1,inactive: 25.2%,–
COc1ccc(NC(=O)c2cc(-c3ccncc3)nc3ccccc23)c(OC)c1,inactive: 3.67%,–
CC(CN(C)Cc1ccccc1)OC(=O)c1ccc(F)cc1 (stereo not given),inactive: 7.34%,–
O=C(COc1ncnc2ccccc12)Nc1ccc(Cl)c([N+](=O)[O-])c1,inactive: 3.43%,–
CC(=O)[C@@H]1[C@@H](C(=O)c2ccc(C)cc2)[C@]2(C(=O)Nc3ccccc32)[C@H]2C=Cc3cc(F)ccc3N12,inactive: -10.4%,–
COC(=O)C1CCN(c2cnccn2)CC1,inactive: 3.55%,–
O=C(NC1CCCC1)C(c1ccc(Cl)cc1)N(C(=O)c1csnn1)C1CC1 (stereo not given),inactive: 1.42%,–
COc1ccccc1NC(=O)CC1C(=O)Nc2c1c(=O)n(C)c(=O)n2C (stereo not given),inactive: -3.1%,–
O=C(COc1ccccc1F)NNC(=O)c1ccc(F)c(S(=O)(=O)N2CCOCC2)c1,inactive: 13%,–
O=C(N=Nc1c(O)[nH]c2ccccc12)c1cc(-c2cccs2)[nH]n1,inactive: 14.6%,–
COc1ccc(-c2nnc(SCC(=O)c3cccs3)n2-c2ccc(Cl)cc2)cc1,inactive: 2.88%,–
O=C(NCc1ccccc1)NC1CCS(=O)(=O)C1 (stereo not given),inactive: 1.59%,–
CC1=NN(C(=O)c2cccnc2)C(O)(C(F)(F)F)C1 (stereo not given),inactive: 0.199%,–
CC(C(=O)Nc1ccc(Cl)cc1)N1C(=O)NC2(CCCC2)C1=O (stereo not given),inactive: 13.4%,–
Cc1c(F)cccc1NS(=O)(=O)c1ccc2c(c1)NC(=O)CO2,inactive: 4.72%,–

Structure (SMILES),growth rescue (activation),Potency
CC1=C(C(=O)Nc2ccccn2)C(c2ccc3c(c2)OCO3)C2=C(CC(C)(C)CC2=O)N1 (stereo not given),inactive: 12.2%,–
N#C/C(=C\c1ccccc1)C(=O)Nc1ccccn1,inactive: 6.59%,–
C=CCOc1ccc(CN(C)C(=O)C2CCCO2)cc1 (stereo not given),inactive: -5.17%,–
COCC(C)NCc1cccc2ccccc12 (stereo not given),inactive: -6.1%,–
Cc1cc(NC(=O)CSc2nc3[nH]c(=O)cc(O)c3s2)ccc1Br,inactive: 18.2%,–
Cc1ccc(NC(=O)Cc2ccc(-n3cccc3)cc2)c(C)c1,inactive: 8.55%,–
COc1cccc(-c2cc(NC(C)=O)c3ncc(-c4cccc(C(C)=O)c4)n3c2)c1,inactive: 28.8%,–
OCCCNc1ncnc2c1ncn2[C@H]1CN(Cc2cccs2)C[C@@H](CO)O1,inactive: 4.02%,–
COc1ccccc1NS(=O)(=O)c1cc(NC(=O)CNC(=O)c2ccccc2)ccc1C,inactive: -8.6%,–
CCN(CC)S(=O)(=O)c1ccc(OC)c(NC(=O)CSc2cc(C)ccc2C)c1,inactive: 13.7%,–
CCOC(=O)c1ccccc1NC(=O)c1cn(-c2ccc(OC)cc2)c(=O)c2ccccc12,inactive: 17.6%,–
Cc1c(N=Cc2nc3ccccc3[nH]2)c(=O)n(-c2ccccc2)n1C,inactive: -19.7%,–
Cc1[nH]n(-c2ccccc2)c(=O)c1C=Nc1cccc(F)c1,inactive: 8.72%,–
CCN1CCCC1CNC(=O)CCc1nnc(CCC2CCCCC2)o1 (stereo not given),inactive: 4.32%,–
Cc1ccc(NC(=O)CSc2sc3c(O)cc(=O)[nH]c3c2C#N)cc1C,inactive: 23.9%,–
CC1(C(=O)OCc2cc(=O)n3cc(Br)ccc3n2)CC1(Cl)Cl (stereo not given),inactive: 28.8%,–
C#CC(CC)(CC)NC(=O)c1cc(S(=O)(=O)N2CCCCC2)ccc1N1CCOCC1,inactive: 14.9%,–
Cc1cccc(C(=O)NNC(=O)CCn2nnc3ccccc32)c1,inactive: -13.9%,–
COc1ccc(C(=O)NC(=S)NCCc2ccccc2)cc1,inactive: 9.62%,–
COc1cc(OC)cc(C(=O)Nc2ccc(NC(=O)c3ccco3)c(C)c2)c1,inactive: -8.37%,–
COc1ccc(/C=C(\NC(=O)c2ccccc2)C(=O)NCc2cccnc2)cc1,inactive: 12.6%,–
COc1ccc(NC(=O)C2CC(=O)N(c3ccccc3Cl)C2)c(OC)c1 (stereo not given),inactive: -13.1%,–
Nc1ccc(C(=O)OCC(=O)Nc2cccc(S(=O)(=O)NC3=NCCCCC3)c2)cc1[N+](=O)[O-],inactive: 23%,–
COc1ccc(NC(=O)c2ccc3c(c2)C(=O)N(CC2CCCO2)C3=O)c(OC)c1 (stereo not given),inactive: -1.5%,–
CCN(CC)S(=O)(=O)c1ccc2c(c1)N(CC(=O)Nc1cccc(C(C)=O)c1)C(=O)CO2,inactive: 2.42%,–
O=C(NCCCl)Nc1cc([N+](=O)[O-])ccc1Cl,inactive: 24.3%,–
COc1ccc(-c2nnc(SCC(=O)NC3CCCc4ccccc43)n2N)cc1 (stereo not given),inactive: 12.5%,–

Structure (SMILES),growth rescue (activation),Potency
CCCNC(=S)Nc1ccc(Cl)cc1C,inactive: 21.3%,–
COc1ccc2cc(S(=O)(=O)Nc3ccccn3)ccc2c1,inactive: 16%,–
CN(C)/C=C(\C#N)C(=O)N/N=C/c1ccccc1,inactive: -2.17%,–
Nc1nc(-c2ccc3c(c2)CCCC3)c(CC(=O)O)s1,inactive: 19.7%,–
Cc1cc(S(=O)(=O)N2CCOCC2)ccc1OCC(=O)NCc1ccco1,inactive: -6.03%,–
COc1ccc(C(=O)CNc2ccccc2Br)cc1,inactive: -12.5%,–
O=c1c2ccccc2nc(/C=C/c2cccnc2)n1Cc1ccccc1,inactive: 21.5%,–
O=C(NC(Cc1ccccc1)C(=O)O)/C(=C\c1ccco1)NC(=O)c1ccccc1 (stereo not given),inactive: -10.6%,–
CCOc1ccc(NCc2cccn2-c2nnc(N3CCC(C(=O)NCCc4ccc(OCC)c(OCC)c4)CC3)s2)cc1,inactive: 12.1%,–
O=C(NCc1ccc2c(c1)OCO2)C(=S)N1CCOCC1,inactive: 12.4%,–
COc1ccccc1S(=O)(=O)Nc1cccc(-c2nnc3n2CCCCC3)c1,inactive: -6.69%,–
COc1ccc(C(C)C)cc1-c1cc(C(=O)NCc2cccc(C(F)(F)F)c2)[nH]n1,inactive: 11.4%,–
C=CCN(c1ccccc1)S(=O)(=O)c1cccc(C(=O)Nc2nc3ccccc3[nH]2)c1,inactive: 1.47%,–
CCc1ccc(NC(=O)C(=O)NCCN2CCN(S(=O)(=O)c3ccccc3)CC2)cc1,inactive: 5.84%,–
CCC(=O)NC(=S)Nc1cccc(NC(=O)c2ccccc2)c1,inactive: 15%,–
COc1ccc(OCC(O)CNCc2ccco2)cc1 (stereo not given),inactive: 19.2%,–
CCOc1ccc(/C(O)=C2/C(=O)C(=O)N(c3ccccn3)C2c2ccc(Cl)cc2)c(C)c1 (stereo not given),inactive: -38.8%,–
CCOC(=O)c1c(CS(=O)(=O)c2ccccc2)n(C)c2cc(Br)c(O)c(CN(C)C)c12,inactive: 3.96%,–
COc1cc(C=Nc2cccc(C)c2)c(O)c([N+](=O)[O-])c1,inactive: 19.2%,–
O=C(NCc1cccc(C(F)(F)F)c1)c1csc(COCCO)n1,inactive: 18.5%,–
Cc1nc(C(F)(F)F)ccc1C(=O)N1CCC1(C)C(=O)NS(=O)(=O)c1ccc(Cl)cc1 (stereo not given),inactive: 1.7%,–
COc1cc2oc(=O)c3c(c2cc1OCC(=O)c1c(C)n(C)c2ccccc12)CCCC3,inactive: 14.8%,–
FC(F)Oc1ccc(-c2csc(=Nc3cccnc3)n2CC2CCCO2)cc1 (stereo not given),inactive: 10.9%,–
COc1ccc(C(=O)CSc2nnc(-c3ccco3)o2)cc1,inactive: 9.55%,–
O=C(CCCCl)Nc1nc(-c2ccc3c(c2)OCCO3)cs1,inactive: 29.5%,–
COc1cc(NC(=O)CCCNC(=O)Cn2cnc3sc(C)c(C)c3c2=O)cc(OC)c1OC,inactive: -6.86%,–
Cc1ccc[n+](CC(=O)/C=C2\N(C)c3ccccc3C2(C)C)c1,inactive: 13.8%,–

Structure (SMILES),growth rescue (activation),Potency
Cc1cccc(C)c1OCc1n[nH]c(=S)n1N,inactive: -3.93%,–
Cc1cc(NS(=O)(=O)c2ccc(NC(=O)c3cccc(OC(F)F)c3)cc2)nc(C)n1,inactive: 7.53%,–
O=C(Cc1ccc(F)cc1)Nc1nc(-c2ccc(F)cc2)cs1,inactive: 21.7%,–
COc1cccc(CN2CCN(C(=O)c3cccs3)CC2)c1OC,inactive: -5.13%,–
Cc1nn(C)c(Cl)c1C(=O)NC(C(=O)O)c1ccccc1 (stereo not given),inactive: -4.55%,–
Cc1cc2ccccc2c(=O)n1CC(=O)N1CCN(c2cccc(Cl)c2)CC1,inactive: 10.3%,–
O=S(=O)(c1ccc(Br)cc1)c1cnc2ccccc2n1,inactive: -2.69%,–
N#Cc1c(-c2ccco2)nc(NCC2CCCO2)[nH]c1=O (stereo not given),inactive: 11.6%,–
Cc1cccc(CC2S/C(=N/N=C/c3ccco3)N(c3ccccc3)C2=O)c1 (stereo not given),inactive: 9.68%,–
Cc1cc(C)cc(C(O)c2ncc(-c3ccccc3F)[nH]2)c1 (stereo not given),inactive: 11.8%,–
CCCCN(CC)Cc1ccc(CNC(=O)Nc2ccc(Cl)cc2)o1,inactive: -31.7%,–
Cc1cnn(-c2nc(-c3ccccc3)cc(-c3ccccc3)n2)c1,inactive: 10.2%,–
O=C(NCc1cccnc1)c1cc(C2CCCN(C(=O)CCCc3ccccc3)C2)on1 (stereo not given),inactive: 2.36%,–
O=S(=O)(NCC1CCCO1)c1ccc(-c2ccc(Cl)cc2)cc1 (stereo not given),inactive: -6.84%,–
COc1ccc(C2C(C(=O)NCc3ccccn3)CCC(=O)N2c2cc(OC)c(OC)c(OC)c2)cc1 (stereo not given),inactive: 6.6%,–
O=C(NN1CCOCC1)c1ccc(Cl)s1,inactive: 5.72%,–
CC(=O)c1c(C)[nH]c(C(=O)COC(=O)c2ccc(C)s2)c1C,inactive: 11.9%,–
Cc1cccc(/C=N/NC(=O)c2ccc(NC(=O)c3ccccc3Cl)cc2)n1,inactive: 4.13%,–
CC1(c2cccc(Br)c2)NC(=O)NC1=O (stereo not given),inactive: -17.6%,–
Cc1ccc(S(=O)(=O)NCCc2nnc(SCc3cccnc3)n2C)cc1,inactive: -3.02%,–
O=C(NC(NC(=S)Nc1ccccc1O)C(Cl)(Cl)Cl)c1ccco1 (stereo not given),inactive: 17.1%,–
C[N+](C)(C)CCN1C(=O)CSC1=O,inactive: -11.6%,–
O=C(c1cc(-c2ccc(Cl)c(Cl)c2)on1)N1CCCCCC1,inactive: -10.6%,–
O=C(c1cccnc1)N1N=C(C2CC2)CC1(O)C(F)(F)F (stereo not given),inactive: -13.9%,–
